# Measured values reported in the BET-seq Pho4 binding data (Le et al. 2018).
# This is one part of the list. These are noisy estimates, calculated here from bound and input reads.
# Biological target: T1, Pho4 (S. cerevisiae) (UniProt P07270)
# T1 sequence: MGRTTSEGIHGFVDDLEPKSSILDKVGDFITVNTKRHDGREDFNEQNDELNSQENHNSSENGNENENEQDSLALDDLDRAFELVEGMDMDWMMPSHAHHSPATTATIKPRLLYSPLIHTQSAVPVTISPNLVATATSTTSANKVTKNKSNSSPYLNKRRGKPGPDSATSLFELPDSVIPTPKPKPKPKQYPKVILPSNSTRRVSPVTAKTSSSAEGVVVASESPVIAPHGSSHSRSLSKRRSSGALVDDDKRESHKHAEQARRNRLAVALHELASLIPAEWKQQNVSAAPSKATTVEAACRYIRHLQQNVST
# Experiment: relative binding free energy (BET-seq); higher = weaker binding
# Details: reference: library average
row,Sequence,relative binding free energy
1,AGGTACACGTGCGTAT,0.0418 kJ/mol
2,TTAGGCACGTGTTAGA,0.251 kJ/mol
3,GAGGACACGTGTGATT,0.92 kJ/mol
4,CGGGTCACGTGTGTGA,0.502 kJ/mol
5,TGCATCACGTGGTAGA,0.502 kJ/mol
6,ATAAGCACGTGGAGGG,-0.711 kJ/mol
7,AGTGACACGTGAGATG,1.05 kJ/mol
8,TGTGACACGTGAGGAC,0.92 kJ/mol
9,AGATTCACGTGCGTTG,0.837 kJ/mol
10,ATTGACACGTGGATGA,0 kJ/mol
11,CGGGTCACGTGAACGT,1.67 kJ/mol
12,TGTATCACGTGTCATA,0.711 kJ/mol
13,GCGGACACGTGGTGTT,0.126 kJ/mol
14,TGAAGCACGTGAGGTA,1.21 kJ/mol
15,GGGTGCACGTGTGGGG,0.502 kJ/mol
16,ACGGGCACGTGGCGGA,-0.879 kJ/mol
17,ACGGGCACGTGGTAAG,-0.377 kJ/mol
18,TCGCGCACGTGGGTGT,-0.879 kJ/mol
19,GATGGCACGTGAGAGA,0.669 kJ/mol
20,CTTAGCACGTGAGTGT,0.879 kJ/mol
21,TGATACACGTGGATTG,0.167 kJ/mol
22,GGTGGCACGTGGAAGT,0.46 kJ/mol
23,TTAGTCACGTGGTTCA,0.335 kJ/mol

row,Sequence,relative binding free energy
1,GCGGTCACGTGGTGAA,0.879 kJ/mol
2,TCTGACACGTGTGGAT,0.837 kJ/mol
3,ACGTACACGTGGGTGG,-0.209 kJ/mol
4,GTTAACACGTGATCGT,0.586 kJ/mol
5,CTATACACGTGGTGGG,-0.126 kJ/mol
6,GCATTCACGTGTTTGT,1.38 kJ/mol
7,GGGTGCACGTGGAAAA,0.669 kJ/mol
8,GAGGTCACGTGCTAGG,0.293 kJ/mol
9,GTCGGCACGTGATGGA,0.418 kJ/mol
10,AGATACACGTGGTGAG,-0.293 kJ/mol
11,ATTCACACGTGTGGGG,0.418 kJ/mol
12,GCGAGCACGTGAGTTG,1.34 kJ/mol
13,TGGTGCACGTGGAGGT,-0.0837 kJ/mol
14,GGTTGCACGTGCGCAG,0.0837 kJ/mol
15,AAGATCACGTGGATTT,0.962 kJ/mol
16,GTTGGCACGTGCGGAG,-0.0418 kJ/mol
17,GGGTGCACGTGTACAG,0.293 kJ/mol
18,TCGAGCACGTGGAAAG,0.837 kJ/mol
19,GCCGTCACGTGTGGTG,0.753 kJ/mol
20,GTTATCACGTGCAGGA,1.21 kJ/mol
21,ATAGGCACGTGGCGGT,-0.837 kJ/mol
22,GAATCCACGTGTGGGT,0.669 kJ/mol
23,TAGATCACGTGGAATG,0.795 kJ/mol

row,Sequence,relative binding free energy
1,GTGTACACGTGGTCGA,0.126 kJ/mol
2,GTGGACACGTGATTTA,0.628 kJ/mol
3,GTTGACACGTGGAGAT,0.837 kJ/mol
4,TGTGGCACGTGTCGGC,0.0837 kJ/mol
5,CTGTTCACGTGTATTA,1.17 kJ/mol
6,GGGTGCACGTGGCGGC,-0.418 kJ/mol
7,ATGATCACGTGAATTG,0.837 kJ/mol
8,GGGTTCACGTGATAAA,1.46 kJ/mol
9,ATTGTCACGTGCTAAG,0.418 kJ/mol
10,GTTCGCACGTGGGGTT,-0.544 kJ/mol
11,TTATTCACGTGATTGC,0.92 kJ/mol
12,GGTGTCACGTGTGATA,1.17 kJ/mol
13,TACTACACGTGGGGTG,-0.377 kJ/mol
14,TAGGTCACGTGACTGG,1.38 kJ/mol
15,GGGTACACGTGGATAT,0.92 kJ/mol
16,TCTGACACGTGAGTGT,0.711 kJ/mol
17,AGTATCACGTGCAGGG,1.05 kJ/mol
18,CGAGCCACGTGGGGCG,-0.377 kJ/mol
19,TAGGGCACGTGTTCTT,-0.669 kJ/mol
20,AGGAGCACGTGTGGAC,0.544 kJ/mol
21,TCGCGCACGTGTAGGG,-0.502 kJ/mol
22,TATTTCACGTGGGGAA,0.46 kJ/mol
23,TTCTTCACGTGAGGGT,0.879 kJ/mol

row,Sequence,relative binding free energy
1,CTGCTCACGTGGGGTA,0.0837 kJ/mol
2,CGTGGCACGTGCAGGT,-0.669 kJ/mol
3,CTACTCACGTGGTGTG,0.628 kJ/mol
4,GAGTTCACGTGGGTAT,1.55 kJ/mol
5,TAATGCACGTGGTATT,-0.669 kJ/mol
6,TGTTTCACGTGCCAGT,1.38 kJ/mol
7,GTGCACACGTGGTCGT,0.167 kJ/mol
8,GACTTCACGTGAGTTG,2.22 kJ/mol
9,AGTCACACGTGGGGGT,0.0418 kJ/mol
10,TAATGCACGTGCTTGT,-1.17 kJ/mol
11,ATTTGCACGTGTGCGA,0.418 kJ/mol
12,GTTTTCACGTGAAGAT,1.38 kJ/mol
13,GTTATCACGTGGGATT,0.628 kJ/mol
14,GAACTCACGTGGTGGT,0.711 kJ/mol
15,CAGGTCACGTGCAGGG,0.0418 kJ/mol
16,GTACGCACGTGTTGTA,-0.126 kJ/mol
17,GTAGTCACGTGTGCGT,0.753 kJ/mol
18,GGATACACGTGTAGTA,0.837 kJ/mol
19,GTTGCCACGTGGAGTG,0.377 kJ/mol
20,GGGGTCACGTGAAATG,1.97 kJ/mol
21,CTATTCACGTGTTTAG,0.335 kJ/mol
22,AAAAGCACGTGGTGTT,-0.418 kJ/mol
23,AGATGCACGTGGGCTG,-1.34 kJ/mol

row,Sequence,relative binding free energy
1,AGGCTCACGTGGGGCT,0.418 kJ/mol
2,TAACTCACGTGTGGTG,0.753 kJ/mol
3,TGGTCCACGTGTGAGA,0.753 kJ/mol
4,GTTAACACGTGAAGAG,1.05 kJ/mol
5,GATTCCACGTGGATGG,0.92 kJ/mol
6,ATAGGCACGTGGTGGA,-0.669 kJ/mol
7,TATTGCACGTGCTGAT,-0.167 kJ/mol
8,GTATTCACGTGATAGG,1.59 kJ/mol
9,GATAACACGTGGGGCG,-0.167 kJ/mol
10,CGAATCACGTGATGTG,1.09 kJ/mol
11,GGGTACACGTGCGGGA,0.335 kJ/mol
12,TTTGCCACGTGTAAGT,-0.377 kJ/mol
13,ATTCGCACGTGGTGGG,-0.544 kJ/mol
14,AAATGCACGTGATATG,0.251 kJ/mol
15,TGATTCACGTGGTGTA,0.669 kJ/mol
16,ATTTACACGTGTCTTG,0.0837 kJ/mol
17,TGTCTCACGTGGTAGT,1 kJ/mol
18,TTAGTCACGTGACGGG,0.544 kJ/mol
19,TGCAACACGTGAGTGG,0.669 kJ/mol
20,GTCATCACGTGTTAGG,1.05 kJ/mol
21,AGCGGCACGTGCGTTG,-0.126 kJ/mol
22,CTGGGCACGTGTGTCA,-0.293 kJ/mol
23,CGTGGCACGTGTTAAG,-0.251 kJ/mol
